The record followed here is the supplement of paper PMC11417369.

± gives the standard deviation of the averaged measurements. The list shows a part of the results.

The assay has as its system PfAP2-I AP2 domain 3 (GST-tagged). The experiment in a line: gcPBM binding intensity (ln(normalized median fluorescence intensity)); higher = stronger DNA binding. In short, it runs like this:
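GST-tagged P. falciparum DNA-binding domains produced in E. coli were incubated for 1 h on an Agilent 4 × 180k array of primer-extended double-stranded 36-bp intergenic genomic probes with negative controls. Binding intensity is the highest Masliner-normalised natural-log median intensity across replicate spots of either probe orientation, with bound protein detected by Alexa488 anti-GST antibody at 488 nm.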
“TTCTTTTTTTTTCTGGGTACATATATTCCAATCACT [XGTACX_site4770]”: the “gcPBM binding intensity (ln)” value was found to be 8.34 ± 0.33.
On to TTATAAAAGACAAAAGTGCATATATACATATGTATA, for which the “gcPBM binding intensity (ln)” value was found to be 9.49 ± 0.21.
On to “AATATATCTTTTTACGGCAACCATATTTTTCCCATT [CACACA_negctrl_site963]”, for which the “gcPBM binding intensity (ln)” value was 8.15 ± 0.84.
On to “TTTTTTTTTTTTTGATGTACATAAATTAAGAATTAT [XGTACX_site7789]”, for which the “gcPBM binding intensity (ln)” value is 8.06 ± 0.67.
Next, “TATTATGTTATATATTGTACATGTTTATTGAAACAA [XGTACX_site5605]”: 7.84 ± 0.5; “TTTATATGTGAAAAAAGTACAAGGAAAAAATTAAAC [XGTACX_site7269]”: 8.34 ± 0.61; “TTTTTTTTAGTATGAACACACATATATATTATAAAA [CACACA_site2935]”: 7.69 ± 0.57.
“TATTAACAAAATATAGCACACATAAATATATATTTA [CACACA_site8005]”: the “gcPBM binding intensity (ln)” value worked out at 8.465 ± 0.064.
In the case of “ATTATCCATGCATTTACACACACACTAAAAAAAATT [CACACA_site7848]”, the “gcPBM binding intensity (ln)” value came out at 8.73 ± 0.38.
Regarding “AATTAAATTTATATGAATGTCAATTATATTGTTATA [XGTACX_negctrl_site261]”, the “gcPBM binding intensity (ln)” value is 7.33 ± 0.4.
Take “ATGTATATATATTTGTGTACATATTTAGGAAATAAA [XGTACX_site2904]”: the “gcPBM binding intensity (ln)” value is 8.04 ± 0.33.
Next, “TTGAATTAAAAACATACATGCATATATATATATATA [TGCATGCA_site319]”: 9.36 ± 0.18; “AAAAAGTTACATGGTGGTACTCAAATAAAATATTCT [XGTACX_site5993]”: 7.78 ± 0.38.
As for “TTATAAAATGGGCAAACACACACAAAAAAAAGATAT [CACACA_site8476]”, the “gcPBM binding intensity (ln)” value was determined as 8.2 ± 0.73.
On to “AATAAATTACTATGTACACACATAAGAGTATAAATA [CACACA_site6940]”, for which the “gcPBM binding intensity (ln)” value is 7.83 ± 0.26.
As for “GAAAGAATAAAATTTACACACATATATAAATACATA [CACACA_site5273]”, the “gcPBM binding intensity (ln)” value amounted to 7.38 ± 0.49.
Next, “AAATATTTTAACGAGAGTACATAATAACAATTTATG [XGTACX_site3865]”: 7.67 ± 0.55; “AAAAAAAAAAAATACACACACACATATATATATATA [CACACA_site731]”: 9.75 ± 0.35.
For the sequence “TTTTTTTTTTTTTATTGTACTAAATTATAGAGGGGA [XGTACX_site2609]”, the “gcPBM binding intensity (ln)” value turned out to be 8.15 ± 0.31.
The result for “ATAAAACAACACACTTGTACTAATTTTTTTTTTTTT [XGTACX_site8377]” reads 7.75 ± 0.48; that for “TGAATAAATAGACACACACACATATATAAATATGTA [CACACA_site6159]”, 7.42 ± 0.35.
As to “TAATTTATAAGGTATAACAACAATTGCATCTATCAC [XGTACX_negctrl_site314]”, the “gcPBM binding intensity (ln)” value amounted to 8 ± 0.24.
Next, “GAAACGATTTAATACACACACGTATTATAGATATAT [CACACA_site6666]”: 7.87 ± 0.47; “TTTTTTTTTTTTTTGACACACATAATAAAATACAAA [CACACA_site3080]”: 8.17 ± 0.83; “AATAAGCATATACAAACATGCATACATATAAATAAA [TGCATGCA_site338]”: 7.76 ± 0.46.
As for “TATATATTTGTAACGGGTACGTAGGTGTATATTCCA [XGTACX_site6028]”, the “gcPBM binding intensity (ln)” value came out at 8.58 ± 0.057.
With “AGCCACGTGGTATATACACACATAATCAAATAAAAT [CACACA_site9364]”, the “gcPBM binding intensity (ln)” value was found to be 7.89 ± 0.67.
Turning to “CTACATACAAGAATTAAACACACACTAATTATAAAT [CACACA_site8986]”, the “gcPBM binding intensity (ln)” value was determined as 7.68 ± 0.53.
The result for “CCTCAATATTCACATACACACAATATCATCGAAGTA [CACACA_site1676]” reads 7.83 ± 0.5; that for “TTATAATTTTAATGTGCACACAATTAAAATATTATA [CACACA_site5172]”, 10.79 ± 0.085.
“TGTAAGAAATTGAGCGCACACATACATCTGTGGGAT [CACACA_site4945]”: the “gcPBM binding intensity (ln)” value came to 8.31 ± 0.61.
As for “TTTTGTTTATGTGTGCATTATATTATATTTTTTATT [TGCATGCA_negctrl_site146]”, the “gcPBM binding intensity (ln)” value worked out at 10.9 ± 0.45.
For “TATAAATAAATATACACACACACATATAAATATGTA [CACACA_site6504]”, the “gcPBM binding intensity (ln)” value came to 7.61 ± 0.17.
Consider “AATAAATATAGGTACACACACAAATATGTACATATC [CACACA_site6976]”, for which the “gcPBM binding intensity (ln)” value was 8 ± 0.4.
“AAAGAAAGGAATACGACACACAAAAAAAAAATATAT [CACACA_site1934]”: the “gcPBM binding intensity (ln)” value was found to be 7.83 ± 0.76.
“TAGTTGCACATGTATACACACAAAAAATATTTTATG [CACACA_site475]”: the “gcPBM binding intensity (ln)” value was determined as 8.64 ± 0.16.
As for “AAGTGGTTATAATCAACACACGTGGAATGTACTTTA [CACACA_site3700]”, the “gcPBM binding intensity (ln)” value stood at 7.85 ± 0.65.
Regarding “AAGAAACCATAATATGCATGCACATATTAATAAATA [TGCATGCA_site693]”, the “gcPBM binding intensity (ln)” value worked out at 8.05 ± 0.69.
“TATAATATTATATATAAACACACATACACATGTAAA [CACACA_site8631]”: the “gcPBM binding intensity (ln)” value stood at 7.79 ± 0.49.
For the sequence “AGAAAAGTTTAATACAGTACATAAACAAAGTATAGG [XGTACX_site2386]”, the “gcPBM binding intensity (ln)” value came to 7.87 ± 0.6.
Regarding “GTATATTTATAGCCTTTATTATATTTAATATTATTA [TGCATGCA_negctrl_site26]”, the “gcPBM binding intensity (ln)” value was determined as 7.74 ± 0.54.
Regarding “GTTATATTTTTTTATACACACTGGAATATATAAATA [CACACA_site4282]”, the “gcPBM binding intensity (ln)” value amounted to 7.89 ± 0.38.
Next, “TATTTATTGTGATACTACTATTATTTTATGATTAAA [CACACA_negctrl_site284]”: 7.55 ± 0.35; “ACCCAATTTTAAAATGAACACACATGTTTTTCTTAC [CACACA_site8246]”: 8.13 ± 0.49.
In the case of “ATAATTATATATTTATGTACGCATAAATATTTATAT [XGTACX_site5765]”, the “gcPBM binding intensity (ln)” value was determined as 7.83 ± 0.48.
Regarding “AACTATATCATTTATTTTATTTTTTAAATACATTTA [CACACA_negctrl_site183]”, the “gcPBM binding intensity (ln)” value is 7.59 ± 0.72.
Regarding “TATATATAACTTTATTGTACAAAATATTATGTATTC [XGTACX_site981]”, the “gcPBM binding intensity (ln)” value was determined as 7.67 ± 0.34.
Regarding “TTATATTATTTTTAATGTACTTTTTATGAATACAAA [XGTACX_site689]”, the “gcPBM binding intensity (ln)” value was determined as 7.78 ± 0.23.
Consider “TATACAACTTTATGAAGTACAAAAAGTTCTATATAT [XGTACX_site3866]”, for which the “gcPBM binding intensity (ln)” value worked out at 7.52 ± 0.44.
Regarding “AATATATGTATGTACGCATGTATGTATCTATGTATT [TGCATGCA_site389]”, the “gcPBM binding intensity (ln)” value worked out at 8.02 ± 0.51.
The result for “TTATAATTATATACATGTACATATAATACATATATA [XGTACX_site8904]” reads 7.71 ± 0.4.
The result for “TGTAATAAATAGTACACACACACATATTTATATATC [CACACA_site6770]” reads 8.19 ± 0.2; that for “ATATGGGTAATGAATTGTACTCTTTCTTGTTGTTCT [XGTACX_site4487]”, 7.83 ± 0.61; that for “GTATAATTTTCGTATTCACACAAGAATATACTACAT [CACACA_site4877]”, 7.88 ± 0.52.
Next, “AAAAACAGAAATGTAACACACAAAAATTCTATTTAT [CACACA_site4026]”: 7.58 ± 0.61; “TTTTGTTATAAATAATGTACATATTTATTTAAAATT [XGTACX_site6610]”: 7.69 ± 0.38.
